Laboratory results: the BET-seq Pho4 binding data (Le et al. 2018)
Some of the results follow. These are noisy estimates, calculated here from bound and input reads.

The sequences below were run against T1, Pho4 (S. cerevisiae) (UniProt P07270) (assay: relative binding free energy (BET-seq); higher = weaker binding). Conditions: reference: library average.
T1 sequence: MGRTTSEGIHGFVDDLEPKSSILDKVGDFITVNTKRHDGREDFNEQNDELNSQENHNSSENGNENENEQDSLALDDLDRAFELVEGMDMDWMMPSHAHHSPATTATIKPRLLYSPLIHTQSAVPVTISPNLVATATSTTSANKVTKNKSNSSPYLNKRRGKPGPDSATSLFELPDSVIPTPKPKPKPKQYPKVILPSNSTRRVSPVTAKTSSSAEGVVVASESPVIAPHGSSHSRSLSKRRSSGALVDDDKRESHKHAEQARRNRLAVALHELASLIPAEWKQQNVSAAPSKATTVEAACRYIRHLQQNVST
For GTTGACACGTGGTTAG, the “relative binding free energy” value was 0.04 kcal/mol. CTTATCACGTGGGTAT was tested, and the “relative binding free energy” value was 0.01 kcal/mol. ATTACCACGTGTGGTA was tested, and the “relative binding free energy” value was 0.03 kcal/mol. For TCTCTCACGTGTTAGG, the “relative binding free energy” value was 0.24 kcal/mol. For TTATGCACGTGTGTCT, the “relative binding free energy” value was 0.12 kcal/mol. In the case of GAGGACACGTGTTGAG, the “relative binding free energy” value is reported as -0.01 kcal/mol. In the case of CTGTTCACGTGCTGGT, the “relative binding free energy” value is reported as 0.27 kcal/mol. With AAAAGCACGTGAGTCG the “relative binding free energy” value was 0.33 kcal/mol. In the case of GGTCTCACGTGATTTT, the “relative binding free energy” value is reported as 0.38 kcal/mol. With ATGTTCACGTGGGGCG the “relative binding free energy” value was 0.16 kcal/mol. With AGGTCCACGTGATAGG the “relative binding free energy” value was -0.02 kcal/mol. AGTGACACGTGGTGTG was tested, and the “relative binding free energy” value was -0.11 kcal/mol. For GAGGTCACGTGCAGGG, the “relative binding free energy” value was 0.18 kcal/mol. TTGTGCACGTGTAGGG was tested, and the “relative binding free energy” value was 0.11 kcal/mol. CTAAGCACGTGGGCGT was tested, and the “relative binding free energy” value was -0.12 kcal/mol. TAGTGCACGTGTACGT was tested, and the “relative binding free energy” value was -0.03 kcal/mol. With AGAGTCACGTGGGGCG the “relative binding free energy” value was 0.02 kcal/mol. AGGAACACGTGCAGTG was tested, and the “relative binding free energy” value was 0.07 kcal/mol. TTCCTCACGTGTTGCT was tested, and the “relative binding free energy” value was 0.46 kcal/mol. In the case of GAGCTCACGTGTGGGA, the “relative binding free energy” value is reported as 0.31 kcal/mol. For GGGTACACGTGGCAGA, the “relative binding free energy” value was 0.02 kcal/mol. In the case of GGACGCACGTGGGGAA, the “relative binding free energy” value is reported as -0.13 kcal/mol. TTTGGCACGTGTTGTC was tested, and the “relative binding free energy” value was 0.02 kcal/mol. CAGGGCACGTGGAGGC was tested, and the “relative binding free energy” value was -0.05 kcal/mol. With TTCTTCACGTGCGGTG the “relative binding free energy” value was 0.28 kcal/mol. With TTTAGCACGTGGTTTG the “relative binding free energy” value was -0.08 kcal/mol. With ACATACACGTGGTGTT the “relative binding free energy” value was 0 kcal/mol. ACAGTCACGTGGGCGG was tested, and the “relative binding free energy” value was -0.09 kcal/mol. With GTTGACACGTGTCGTA the “relative binding free energy” value was -0.05 kcal/mol. With AAGCTCACGTGTAGTT the “relative binding free energy” value was 0.23 kcal/mol. With TTTTACACGTGTAATG the “relative binding free energy” value was 0.04 kcal/mol. In the case of GGTGACACGTGTATGA, the “relative binding free energy” value is reported as 0.09 kcal/mol. TTAGCCACGTGTTGGG was tested, and the “relative binding free energy” value was -0.08 kcal/mol. In the case of TTTAGCACGTGTGAAC, the “relative binding free energy” value is reported as 0.08 kcal/mol. For CAATTCACGTGAGGTG, the “relative binding free energy” value was 0.55 kcal/mol. For CTTGACACGTGGAGTT, the “relative binding free energy” value was -0.04 kcal/mol. GGGAGCACGTGTTTCG was tested, and the “relative binding free energy” value was -0.03 kcal/mol. With GGAGTCACGTGTTGTG the “relative binding free energy” value was 0.14 kcal/mol. With GGATACACGTGAGGGA the “relative binding free energy” value was 0.29 kcal/mol. For GGATACACGTGTTAGA, the “relative binding free energy” value was 0.15 kcal/mol. In the case of TCGTGCACGTGGAGTG, the “relative binding free energy” value is reported as 0.02 kcal/mol. In the case of CGGGTCACGTGGTCGT, the “relative binding free energy” value is reported as -0.06 kcal/mol. GGATCCACGTGATTGG was tested, and the “relative binding free energy” value was 0.16 kcal/mol. For GCGCGCACGTGGGGTT, the “relative binding free energy” value was -0.29 kcal/mol. For AGTGACACGTGAAATT, the “relative binding free energy” value was 0.3 kcal/mol. TTAGTCACGTGGGATA was tested, and the “relative binding free energy” value was 0.08 kcal/mol. For AATTGCACGTGCGTGT, the “relative binding free energy” value was -0.05 kcal/mol. TAGGGCACGTGCGGTT was tested, and the “relative binding free energy” value was -0.09 kcal/mol. For ATTGCCACGTGCGGGT, the “relative binding free energy” value was -0.18 kcal/mol. For GGGGTCACGTGTTGTA, the “relative binding free energy” value was 0.13 kcal/mol. In the case of TGAGACACGTGGTCGG, the “relative binding free energy” value is reported as 0.03 kcal/mol. With GGGAGCACGTGAGTAA the “relative binding free energy” value was 0.22 kcal/mol. In the case of GTGGGCACGTGCGTGC, the “relative binding free energy” value is reported as -0.08 kcal/mol. For TTTGTCACGTGACATA, the “relative binding free energy” value was 0.26 kcal/mol. With ATGCTCACGTGGATTT the “relative binding free energy” value was 0.15 kcal/mol. With ACATGCACGTGAGGTG the “relative binding free energy” value was 0.04 kcal/mol. With ATTGGCACGTGAAATT the “relative binding free energy” value was 0.16 kcal/mol. In the case of GTATACACGTGTGTTG, the “relative binding free energy” value is reported as 0.05 kcal/mol. TAACACACGTGTTTAG was tested, and the “relative binding free energy” value was 0.39 kcal/mol. With ATCGACACGTGTTTGG the “relative binding free energy” value was 0.03 kcal/mol. TGATGCACGTGAGGAT was tested, and the “relative binding free energy” value was 0.3 kcal/mol. For GAGATCACGTGAGGGT, the “relative binding free energy” value was 0.33 kcal/mol. AGTCACACGTGATGGT was tested, and the “relative binding free energy” value was 0.24 kcal/mol. TCGGTCACGTGAGATT was tested, and the “relative binding free energy” value was 0.27 kcal/mol. CTAGGCACGTGGCATG was tested, and the “relative binding free energy” value was -0.22 kcal/mol. GAGGTCACGTGTGTCT was tested, and the “relative binding free energy” value was 0.26 kcal/mol. For TGTGGCACGTGCTTCT, the “relative binding free energy” value was -0.23 kcal/mol. For TAGGCCACGTGTTTGA, the “relative binding free energy” value was 0.03 kcal/mol. With TAGCGCACGTGTGGTA the “relative binding free energy” value was -0.01 kcal/mol. In the case of TAGGGCACGTGGTTGT, the “relative binding free energy” value is reported as -0.14 kcal/mol. In the case of TTAGGCACGTGCTGGT, the “relative binding free energy” value is reported as -0.28 kcal/mol. GTATACACGTGAAGTG was tested, and the “relative binding free energy” value was 0.22 kcal/mol. GTTTGCACGTGAATTG was tested, and the “relative binding free energy” value was 0.24 kcal/mol. For ACTGGCACGTGTTAGG, the “relative binding free energy” value was -0.12 kcal/mol. In the case of CGTTTCACGTGTTAGA, the “relative binding free energy” value is reported as 0.18 kcal/mol. In the case of GGCGGCACGTGTAGGC, the “relative binding free energy” value is reported as -0.01 kcal/mol. For TGCATCACGTGTATGG, the “relative binding free energy” value was 0.16 kcal/mol. For GTGTCCACGTGAGGGA, the “relative binding free energy” value was 0.16 kcal/mol. For TAGTTCACGTGGCTTT, the “relative binding free energy” value was 0.25 kcal/mol. TAGTTCACGTGTAGAC was tested, and the “relative binding free energy” value was 0.35 kcal/mol. For GATGGCACGTGGAGGG, the “relative binding free energy” value was -0.02 kcal/mol. With TTTTACACGTGTGGTA the “relative binding free energy” value was 0.2 kcal/mol. AGCTGCACGTGGGGGA was tested, and the “relative binding free energy” value was -0.1 kcal/mol. For GGTGACACGTGGTTAC, the “relative binding free energy” value was 0.12 kcal/mol. With TCTATCACGTGTGTAG the “relative binding free energy” value was 0.24 kcal/mol. GGTCGCACGTGGATGA was tested, and the “relative binding free energy” value was -0.04 kcal/mol. GGCCGCACGTGTTGGT was tested, and the “relative binding free energy” value was 0.01 kcal/mol. ATGATCACGTGTGAAT was tested, and the “relative binding free energy” value was 0.21 kcal/mol. In the case of GTAATCACGTGGCGGG, the “relative binding free energy” value is reported as 0.21 kcal/mol. With GGTTGCACGTGCTAGG the “relative binding free energy” value was -0.08 kcal/mol. With TTTAGCACGTGTCATT the “relative binding free energy” value was -0.13 kcal/mol. With TTTGCCACGTGATATG the “relative binding free energy” value was 0.03 kcal/mol. For AGTACCACGTGGGGGA, the “relative binding free energy” value was -0.14 kcal/mol. For AGTTCCACGTGGTGCT, the “relative binding free energy” value was 0.02 kcal/mol. With GGGTACACGTGTCTGG the “relative binding free energy” value was 0.08 kcal/mol. In the case of GCTAGCACGTGTGTGG, the “relative binding free energy” value is reported as 0.09 kcal/mol. In the case of TAATTCACGTGTTAGA, the “relative binding free energy” value is reported as 0.2 kcal/mol. In the case of GCGTACACGTGTGTGT, the “relative binding free energy” value is reported as 0.08 kcal/mol. In the case of CATTTCACGTGTGCTT, the “relative binding free energy” value is reported as 0.36 kcal/mol. In the case of GGGTACACGTGTCGAA, the “relative binding free energy” value is reported as 0.16 kcal/mol. CGGGGCACGTGTGGGG was tested, and the “relative binding free energy” value was -0.09 kcal/mol. AGGGGCACGTGTGTAG was tested, and the “relative binding free energy” value was -0.13 kcal/mol. AGCGGCACGTGGCGAG was tested, and the “relative binding free energy” value was -0.13 kcal/mol. GGAAGCACGTGTAAGT was tested, and the “relative binding free energy” value was -0.11 kcal/mol. For TATGGCACGTGGTGAA, the “relative binding free energy” value was -0.09 kcal/mol. CAGAGCACGTGAGGTT was tested, and the “relative binding free energy” value was 0.26 kcal/mol. In the case of TTGGTCACGTGGTAAA, the “relative binding free energy” value is reported as 0.12 kcal/mol. ATTTGCACGTGTTGAC was tested, and the “relative binding free energy” value was 0.09 kcal/mol. With TAGTTCACGTGCGTAA the “relative binding free energy” value was 0.31 kcal/mol. With TGTGCCACGTGTCGGT the “relative binding free energy” value was -0.08 kcal/mol. With CGGTTCACGTGTTGGC the “relative binding free energy” value was 0.4 kcal/mol. With CTTGACACGTGTGGTG the “relative binding free energy” value was 0.08 kcal/mol. In the case of GTTTGCACGTGTGGGA, the “relative binding free energy” value is reported as 0.17 kcal/mol. GCAGTCACGTGGGTCG was tested, and the “relative binding free energy” value was -0.06 kcal/mol. With GTGCTCACGTGTTTCG the “relative binding free energy” value was 0.36 kcal/mol.
